Assay results from PubChem BioAssay (NCATS).
The inconclusive results got no clear call from the source; some entries with a clear call stand among them for comparison. For some assays here: No potency is given beside an inconclusive call; the fits are too rough. Active and inactive are the calls of the source. Calls come from the whole dose curve; as a rule, active = well fitted curve in the direction sought with a large enough effect; inconclusive = small, poorly fitted or top-dose-only effect, or another doubt; inactive = no such curve, though single readings can be large; an effect the other way counts as inactive or inconclusive.

Key:
[1] = test system: Zika virus NS2B-NS3 protease (linked construct); experiment: Primary screen NINDS Rhodamine qHTS for Zika virus inhibitors (AID 1347160); note: nearly all actives have a fitted effect of over 55% in size
How it was run: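 Purified NS2B-NS3 protease with the NS2B hydrophilic domain joined by a flexible linker (25 nM) in 10 mM Tris-HCl pH 8.0, 0.01% Tween 20, preincubated 15 min at RT with compound; Rhodamine110 peptide substrate 1.5 µM; fluorescence change over 15 min; 4-parameter Hill fit.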

[2] = OV-KATE Cancer Cell Toxicity qHTS against the NCATS CANVASS Library (AID 1347345)
How it was run: (§1)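 Per well, 1000 cells; exposure 72 h with compound at 11 final concentrations; readout CellTiter-Glo luminescence.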

[3] = HPAF-II Cancer Cell Toxicity qHTS against the NCATS CANVASS Library (AID 1347346); note: nearly all actives have a fitted effect of over 55% in size
How it was run: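 Cytotoxicity in HPAF-II pancreatic cancer cells: 72 h treatment across 11 concentrations, ATP-based CellTiter-Glo luminescence endpoint.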

[4] = UWB1.289 Cancer Cell Toxicity qHTS against the NCATS CANVASS Library (AID 1347347); note: nearly all actives have a fitted effect of over 60% in size
How it was run: as §1

[5] = SW1088 Cancer Cell Toxicity qHTS against the NCATS CANVASS Library (AID 1347350); note: nearly all actives have a fitted effect of over 75% in size
How it was run: as §1

[6] = U-118MG Cancer Cell Toxicity qHTS against the NCATS CANVASS Library (AID 1347351)
How it was run: as §1

[7] = UWB1.289-WTBRCA1 Cancer Cell Toxicity qHTS against the NCATS CANVASS Library (AID 1347354)
How it was run: (§2)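 qHTS cytotoxicity: compounds tested in 11 concentrations on 1000 seeded cells per well over 72 h; bortezomib served as control; signal from CellTiter-Glo luminescence.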

[8] = HEK-293 Cancer Cell Toxicity qHTS against the NCATS CANVASS Library (AID 1347355); note: nearly all actives have a fitted effect of over 65% in size
How it was run: as §2

[9] = KB-8-5-11 Cancer Cell Toxicity qHTS against the NCATS CANVASS Library (AID 1347364); details: activity change, negative = toxicity: at 46.1 µM (top of the series); note: nearly all actives have a fitted effect of over 75% in size
How it was run: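 Natural products were titrated in 11 points onto KB-8-5-11 cells, 500 per well, and cytotoxicity was scored from CellTiter-Glo luminescence after 72 hr culture.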

[10] = qHTS for Hypoxia signaling pathway (HIF-1) antagonists against the NCATS CANVASS Library (AID 1347374); note: nearly all actives have a fitted effect of over 60% in size
How it was run: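 HRE-bla ME-180 cells (2,000/well, 0.5% dialyzed FBS) were pre-incubated 5 h, then given an 11-point compound series plus CoCl2 (60 uM solution as added) for 17 h at 37C. CCF4 β-lactamase read (ex 405, em 460/530 nm) after 2 h at RT.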

[11] = qHTS for Antimalaria activity screened against the NCATS CANVASS Library (AID 1347380); note: nearly all actives have a fitted effect of over 40% in size
How it was run: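 Growth inhibition of asexual erythrocytic P. falciparum Dd2 was quantified by SYBR Green DNA staining. Cultures grew 72 h with compound (11-point series) in hypoxic gas at 37C; lysis and staining lasted 18 h.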

[12] = qHTS for Activators of p53 Stress Response Pathway screened against the NCATS CANVASS Library (AID 1347388)
How it was run: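 Beta-lactamase reporter driven by p53 response elements in HCT-116 cells, read as the 460 nm/530 nm emission ratio after CCF4 loading, following 16 h of exposure to an 11-point series. Cell viability was measured in the same wells by CellTiter-Glo luminescence.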

[13] = Secretion counterscreen for inhibitors of the SERCaMP assay screened against the NCATS CANVASS Library (AID 1347390); details: SH-SY5Y constitutive GLuc secretion, luminescence, 20 h; activity change, negative = inhibition: at 76.6 µM (top of the series);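 note: light from luciferase secreted into medium read as a measure of general secretion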; for activity change, negative = inhibition: % is set by controls: 0 for no effect and ±100 for the full control effect
How it was run: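 Counterscreen identifying compounds that disrupt secretion, using SH-SY5Y cells with a constitutively secreted Gaussia luciferase reporter. A 20 h compound exposure (top 77 uM) precedes luminescent detection with coelenterazine.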

[14] = qHTS for activators of Nrf2/ARE signaling pathway screened against the NCATS CANVASS Library (AID 1347391); note: nearly all actives have a fitted effect of over 60% in size
How it was run: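 Cells carrying an ARE-driven beta-lactamase reporter (HepG2 background) are dosed for 16 h, then stained with CCF4. Cell viability in the same wells is measured by CellTiter-Glo luminescence.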

[15] = qHTS for inhibitors of ER calcium dysfunction: SERCaMP assay screened against the NCATS CANVASS Library (AID 1347393); details: SH-SY5Y GLuc-SERCaMP (Gaussia luciferase released on ER calcium loss) secretion, thapsigargin, luminescence; activity change, negative = inhibition: at 76.6 µM (top of the series) unless noted; note: nearly all actives have a fitted effect of over 40% in size;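 for activity change, negative = inhibition: % is set by controls: 0 for no effect and ±100 for the full control effect; lower secreted reporter signal means inhibitor of ER calcium depletion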
How it was run: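 Thapsigargin-induced ER calcium depletion drives GLuc-SERCaMP secretion from SH-SY5Y cells; compounds given 16 h beforehand were scored by lowered coelenterazine luminescence after 4 h challenge.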

[16] = Viability qHTS for inhibitors of the SERCaMP assay screened against the NCATS CANVASS Library (AID 1347400); note: nearly all actives have a fitted effect of over 70% in size; for activity change, negative = cytotoxicity: % is set by controls: 0 for no effect and ±100 for the full control effect
How it was run: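 Cytotoxicity counter-screen: ATP content (CellTiter-Glo luminescence) of SH-SY5Y-GLuc SERCaMP MJH297 cells after 48 h at 37C with compounds in an 11-point qHTS series.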

[17] = A2780 Cisplatin Sensitive Ovarian Cancer Cell Toxicity qHTS against the NCATS CANVASS Library (AID 1347353); note: nearly all actives have a fitted effect of over 60% in size
How it was run: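 Seventy-two-hour exposure of cisplatin-sensitive A2780 ovarian cells to an 11-concentration qHTS series; cytotoxicity is inferred from loss of ATPLite luminescence. Bortezomib titration served as positive control.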

[18] = qHTS for inhibitors of Wild type Zika virus screened against the NCATS CANVASS Library (AID 1347396)
How it was run: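 Vero 766 (African green monkey) cells, 1000 per well, attached overnight, then compounds were added in an 11-point series before wild-type Zika virus infection. After 72 h at 37C, cell viability was read as CellTiter Glo luminescence.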

[19] = OV-SAHO Cancer Cell Toxicity qHTS against the NCATS CANVASS Library (AID 1347348); details: OV-SAHO viability, CellTiter-Glo luminescence, 72 h; activity change, negative = cytotoxicity: at 38.3 µM (top of the series); note: nearly all actives have a fitted effect of over 55% in size
How it was run: as §1

[20] = Panc-1005 Cancer Cell Toxicity qHTS against the NCATS CANVASS Library (AID 1347349); note: nearly all actives have a fitted effect of over 60% in size
How it was run: as §1
Potency is the fitted concentration of half-maximal effect; tags give direction and shape of the fitted curve.

SMILES: O=C(OC[C@H]1O[C@@H](OC(=O)c2cc(O)c(O)c(O)c2)[C@H](OC(=O)c2cc(O)c(O)c(O)c2)[C@@H](OC(=O)c2cc(O)c(O)c(O)c2)[C@@H]1OC(=O)c1cc(O)c(O)c(O)c1)c1cc(O)c(O)c(O)c1
- Potency [1]: active: 0.877 µM
- Potency [2]: inconclusive [cytotoxic, single point]
- Potency [3]: inconclusive [cytotoxic, single point]
- Potency [4]: active: 18.8 µM
- Potency [5]: inconclusive [cytotoxic, single point]
- Potency [6]: inconclusive [cytotoxic, partial curve]
- Potency [7]: inconclusive [cytotoxic, single point]
- Potency [8]: inconclusive [cytotoxic, single point]
- Potency [9]: inconclusive [cytotoxic, single point]
- Potency [10]: inconclusive [inhibitor, single point]
- Potency [11]: inconclusive [cytotoxic, partial curve, poor fit]
- Potency [12]: active: 11.7 µM
- Potency [13]: inactive
- Potency [14]: inconclusive [activator, single point]
- activity change, negative = inhibition [15]: inconclusive: 9.76% [inhibitor]

SMILES: CCCc1c2c([nH]c(=O)c1C)C(=O)c1[nH]c(=O)c(C)c(CCC)c1C2=O
- Potency [1]: active: 34.9 µM
- Potency [2]: inconclusive [cytotoxic, partial curve]
- Potency [3]: inconclusive [cytotoxic, single point]
- Potency [4]: active: 7.47 µM
- Potency [7]: active: 7.47 µM
- Potency [10]: active: 9.41 µM
- Potency [14]: inconclusive [activator, partial curve]
- Potency [15]: inconclusive [inhibitor, partial curve]
- Potency [16]: inactive

SMILES: COc1cc(O)c(C(=O)[C@@H]2[C@H](CC=C(C)C)C(C)=CC[C@H]2c2ccccc2)c(O)c1
- Potency [1]: active: 15.6 µM
- Potency [2]: inconclusive [cytotoxic, single point]
- Potency [3]: active: 13.3 µM
- Potency [4]: active: 13.3 µM
- Potency [6]: active: 7.49 µM
- Potency [17]: inconclusive [cytotoxic, partial curve, poor fit]
- Potency [7]: inconclusive [cytotoxic, single point]
- Potency [8]: active: 20.9 µM
- Potency [9]: active: 16.6 µM
- Potency [10]: inconclusive [inhibitor, single point]
- Potency [11]: active: 6.66 µM
- Potency [12]: inconclusive [activator, partial curve]
- Potency [13]: inconclusive [inhibitor, single point]
- Potency [14]: inactive
- Potency [15]: inconclusive [inhibitor, partial curve]
- Potency [18]: inconclusive [inhibitor, full curve]
- Potency [16]: inconclusive [cytotoxic, partial curve, poor fit]

SMILES: C/C(=C\[C@H](C)C(=O)CCCC1CC(=O)NC(=O)C1)[C@@H]1OC(=O)/C=C/CC/C=C/[C@H](O)[C@@H](O)[C@@H]1C
- Potency [1]: active: 49.3 µM
- Potency [2]: inconclusive [cytotoxic, full curve]
- Potency [3]: active: 1.33 µM
- Potency [4]: active: 1.18 µM
- Potency [19]: active: 0.747 µM
- Potency [5]: inconclusive [cytotoxic, single point]
- Potency [6]: inconclusive [cytotoxic, full curve]
- Potency [17]: active: 0.372 µM
- Potency [7]: inconclusive [cytotoxic, full curve, poor fit]
- Potency [13]: active: 2.72 µM

SMILES: CO[C@H]1/C=C/CCCCC(=O)O[C@@H](/C(C)=C/[C@H](C)C(=O)C[C@H](O)CC2CC(=O)NC(=O)C2)[C@@H](C)C1
- Potency [1]: active: 49.3 µM
- Potency [2]: inconclusive [cytotoxic, partial curve]
- Potency [3]: inconclusive [cytotoxic, partial curve]
- Potency [4]: inconclusive [cytotoxic, partial curve]
- Potency [20]: inconclusive [cytotoxic, single point]
- Potency [6]: inconclusive [cytotoxic, partial curve]
- Potency [7]: inconclusive [cytotoxic, single point]
- Potency [11]: active: 9.41 µM
- Potency [12]: inactive
- Potency [13]: active: 17.2 µM
- Potency [14]: active: 16.6 µM
- Potency [18]: inactive
- Potency [16]: inconclusive [cytotoxic, partial curve]

SMILES: CN1CCc2cc3c(c4c2C1(C)C(=O)c1cc(O)ccc1-4)OCO3 (centres undefined)
- Potency [1]: inconclusive [inhibitor, partial curve, poor fit]
- Potency [2]: inconclusive [cytotoxic, partial curve, poor fit]
- Potency [3]: inconclusive [cytotoxic, partial curve]
- Potency [4]: inconclusive [cytotoxic, single point]
- Potency [20]: inconclusive [cytotoxic, single point]
- Potency [6]: inconclusive [cytotoxic, partial curve]
- Potency [17]: inconclusive [cytotoxic, single point]
- Potency [13]: inconclusive [inhibitor, full curve]
- Potency [15]: active: 19.3 µM
- Potency [16]: inconclusive [cytotoxic, partial curve]
